Source: PubChem BioAssay AID1468 (National Center for Advancing Translational Sciences (NCATS), 2008)
“And” between values parts separate entries of the source, which are not always exact repeats. Identical values can stand only once. The whole screen tested about 280,000 compounds, of which about 1,100 (0.39%) were called active. Inconclusive means that the source gave no clear call. Such entries were picked first, then a sample of the others. Calls follow the shape of the dose curve; as a rule, active = well fitted inhibition curve with a large enough effect; inconclusive = small, poorly fitted or top-dose-only effect, or effect the other way; inactive = flat fitted curve, though single readings scatter. Potencies of inconclusive entries are doubtful fits and often do not repeat.

biological target: Microtubule-associated protein tau (Homo sapiens) (UniProt P10636); experiment: qHTS for Inhibitors of Tau Fibril Formation, Fluorescence Polarization; conditions: K18 P301L tau heparin fibrillization, Alexa594 FP, 6 h; series mostly up to 57.7 µM; activity, negative = inhibition: at the top concentration; also: nearly all actives have a fitted effect of over 55% in size
Chain of UniProt P10636 (P10636 whole entry, looked up, the tested form may be a part): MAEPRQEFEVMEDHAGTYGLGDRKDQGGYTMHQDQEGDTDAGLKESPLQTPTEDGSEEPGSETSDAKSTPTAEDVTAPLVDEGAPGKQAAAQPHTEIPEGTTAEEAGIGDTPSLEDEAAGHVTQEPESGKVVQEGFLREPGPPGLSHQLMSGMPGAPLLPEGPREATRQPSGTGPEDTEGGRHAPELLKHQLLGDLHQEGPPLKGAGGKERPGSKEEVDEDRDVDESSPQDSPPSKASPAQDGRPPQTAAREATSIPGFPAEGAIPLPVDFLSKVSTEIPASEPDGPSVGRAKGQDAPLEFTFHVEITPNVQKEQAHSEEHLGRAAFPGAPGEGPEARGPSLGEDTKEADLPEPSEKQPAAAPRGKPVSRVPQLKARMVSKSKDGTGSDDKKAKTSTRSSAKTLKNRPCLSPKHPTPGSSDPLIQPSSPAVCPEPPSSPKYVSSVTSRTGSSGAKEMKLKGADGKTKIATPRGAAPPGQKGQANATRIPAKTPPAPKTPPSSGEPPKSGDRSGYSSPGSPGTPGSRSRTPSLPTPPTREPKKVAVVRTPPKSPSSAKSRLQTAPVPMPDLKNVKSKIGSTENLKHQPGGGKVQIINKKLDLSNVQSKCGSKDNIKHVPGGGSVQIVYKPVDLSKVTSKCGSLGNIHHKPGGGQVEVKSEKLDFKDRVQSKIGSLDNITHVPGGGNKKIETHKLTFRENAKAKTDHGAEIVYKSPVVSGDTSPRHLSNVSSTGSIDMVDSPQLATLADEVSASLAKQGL
Summary of the method: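 Human tau K18 […] P301L fragment, 15 uM unlabeled plus 0.24 uM Alexa 594-labeled tau (final), with compound and 20 uM heparin in 100 mM sodium acetate pH 7; 6 hr at 37 C, then Alexa 594 FP read.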
% is scaled to controls: 0 for no effect and ±100 for the full control effect; potency is read from the fitted curve at half-maximal effect; tags tell the direction and shape of the fitted curve.

Row | Compound | activity, negative = inhibition | Potency
1 | CSc1cccc(NC(=S)Nc2cc(C)ccc2C)c1 | inactive: -4.77% | –
2 | CCCCC(CC)Cn1c(O)c(/C=C2\C=NN=C2c2ccccc2)sc1=S (stereo not given) | – | active: 17.8 µM
3 | COC(=O)c1ccccc1-c1ccc(/C=N/NC(=O)c2cc3ccccc3o2)o1 | – | inconclusive: 7.08 µM [inhibitor, partial curve]
4 | NC(=O)c1c(NC(=O)COC(=O)c2ccc(S(=O)(=O)Nc3ccccc3)cc2)sc2c1CCCC2 | – | inconclusive: 3.55 µM [inhibitor, partial curve, poor fit]
5 | Cc1ccc(NC(=O)Nc2ccccc2)cc1[N+](=O)[O-] | – | inconclusive: 31.6 µM [inhibitor, single point]
6 | N#C/C(=C\c1ccc(N2CCOCC2)o1)c1ccccc1 | – | inconclusive: 22.4 µM [inhibitor, partial curve]
7 | O=C(Nn1c(O)c(C=C2N=c3ccccc3=N2)sc1=S)c1ccccc1Cl | – | inconclusive: 10 µM [activator, partial curve, poor fit]
8 | O=C(c1ccc(NC(=S)Nc2ccc(Cl)c(Cl)c2)cc1)N1CCCC1 | – | inconclusive: 35.5 µM [inhibitor, single point]
9 | Cc1ccc2ccc(C(Nc3ccccn3)c3ccccc3)c(O)c2n1 (stereo not given) | – | inactive
10 | CN1CCC2(CC1)C1CN(C)CC=C1C(C#N)=C(N)C2(C#N)C#N (stereo not given) | – | inactive and inconclusive: 35.5 µM [inhibitor, single point]
11 | CC(C)Cc1nn2c(=O)cc(COC(=O)c3cccc(NC(=O)CCc4ccccc4)c3)nc2s1 | inactive: 5.77% | –
12 | CCOC(=O)CSc1nc2cc3c(cc2c(=O)n1CCCC(=O)NCc1ccc2c(c1)OCO2)OCO3 | inactive: -0.575% | –
13 | O=C(OC(C(=O)Nc1ccc(Cl)c(C(F)(F)F)c1)c1ccccc1)C1=COCCO1 (stereo not given) | – | inconclusive: 39.8 µM [inhibitor, single point]
14 | CCN(CC)CCCNC(=O)c1oc2c(c1C)-c1nn(Cc3ccc(Cl)cc3)cc1CC2 | – | inconclusive: 25.1 µM [activator, single point]
15 | O=c1c2cc(Cl)ccc2oc2nc3n(c(=O)c12)CCCS3 | – | inconclusive: 8.91 µM [inhibitor, single point]
16 | O=C(Cn1nc(-c2ccccc2F)ccc1=O)Nc1ccc(S(=O)(=O)N2CCCCCC2)cc1 | – | inconclusive: 25.1 µM [inhibitor, partial curve]
17 | CCN1CCN(c2nc(-c3ccncc3)nc3ccccc23)CC1 | – | inconclusive: 44.7 µM [inhibitor, single point]
18 | Nc1nc(=S)c2ncn(C3OC(CO)C(O)C3O)c2[nH]1 (stereo not given) | – | inconclusive: 14.1 µM [inhibitor, partial curve]
19 | O=C(Nc1nccs1)c1cc(-c2ccccc2)nc2ccccc12 | – | inconclusive: 44.7 µM [inhibitor, single point]
20 | O=C(Nc1ccc(Cl)cc1)N(C1=NCCC1)c1ccc(OC(F)F)cc1 | – | inconclusive: 44.7 µM [inhibitor, single point]
21 | Cc1ncoc1C(=O)Nc1ncc([N+](=O)[O-])s1 | – | inconclusive: 22.4 µM [inhibitor, partial curve]
22 | CCc1ccc(C(=O)c2cn(CC(=O)Nc3ccc(F)cc3)c3cc4c(cc3c2=O)OCO4)cc1 | – | inconclusive: 14.1 µM [inhibitor, partial curve]

Row | Compound | activity, negative = inhibition | Potency
23 | COc1cc(SC#N)ccc1N=Cc1c(C)[nH]n(-c2ccc(Cl)cc2)c1=O | – | inconclusive: 14.1 µM [inhibitor, partial curve]
24 | CC(C)C[C@H](NC(=O)c1[nH]cnc1C(=O)N[C@@H](C)c1ccccc1)C(=O)OC(C)(C)C | – | inconclusive: 6.31 µM [inhibitor, single point]
25 | COc1ccccc1-n1nnnc1SCc1cc2c(cc1Br)OCO2 | inactive: -12.7% | –
26 | Nc1ccc2cn[nH]c2c1 | – | inconclusive: 2.82 µM [inhibitor, partial curve]
27 | OC(COc1cccc2ccccc12)CN1CCN(c2ccc(Cl)cc2)CC1 (stereo not given) | inactive: -14.4% | –
28 | COc1cc(OC)cc(C(=O)Nc2cc(-c3cn4cccnc4n3)ccc2C)c1 | – | inconclusive: 12.6 µM [inhibitor, single point]
29 | Fc1c(F)c(F)c(CSc2nc3ccccc3[nH]2)c(F)c1F | inactive: 8.05% | –
30 | C/C(=N/NC(=O)CSCc1ccc(Cl)cc1)c1cccc(NC(=O)c2ccccc2)c1 | – | inconclusive: 28.2 µM [inhibitor, partial curve]
31 | O=c1ncccn1[C@@H]1O[C@H](CO)C(O)[C@@H]1O (stereo not given in full) | – | inconclusive: 1.41 µM [inhibitor, single point]
32 | CCOC(=O)C(NC(C)=O)C(O)c1ccc([N+](=O)[O-])cc1 (stereo not given) | – | inconclusive: 7.94 µM [inhibitor, single point]
33 | CCCC(=O)Nc1nc2c(OC)ccc(OC)c2s1 | inactive: -2.98% | –
34 | Cc1cc(/C=C2\NC(=O)NC2=O)c(C)n1-c1ccc(N2CCOCC2)cc1 | – | inconclusive: 39.8 µM [inhibitor, single point]
35 | Nc1nc(N)c2c(ccc3nccc32)[nH]1 | – | inconclusive: 0.398 µM [inhibitor, full curve, poor fit]
36 | Cc1cc(C)c2c(=O)n(CC(=O)NC3CCCC3)sc2n1 | – | active: 14.1 µM
37 | NC(=O)CSc1cn(Cc2ccccc2)c2ccccc12 | inactive: -6.27% | –
38 | O=C(O)c1ccc2[nH]c3c(c2c1)CSCC3 | – | inconclusive: 12.6 µM [inhibitor, partial curve]
39 | CCCc1nnc(NC(=O)c2nc(S(=O)(=O)Cc3ccc(C)cc3)ncc2Cl)s1 | – | inconclusive: 44.7 µM [inhibitor, single point]
40 | CC(C)(C)C1CCc2onc(C(=O)Nc3sc4c(c3C(N)=O)CCCC4)c2C1 (stereo not given) | – | inconclusive: 31.6 µM [inhibitor, single point]
41 | CCOc1ccccc1NS(=O)(=O)c1c(-c2ccc(C)cc2)csc1C(=O)OC | – | inconclusive: 8.91 µM [inhibitor, partial curve, poor fit]
42 | C=CCNC(=S)NNc1nc2c(c(=O)[nH]1)C1(CCCCC1)Cc1ccccc1-2 | – | inconclusive: 28.2 µM [inhibitor, partial curve, poor fit]
43 | CC1Cc2ccccc2N1CC(=O)Nc1ccc2c(c1)OCO2 (stereo not given) | – | inconclusive: 7.08 µM [activator, partial curve, poor fit]
44 | Cc1ccc(-n2nc(C)c3c2OC(N)=C(C#N)C3c2ccoc2)cc1 (stereo not given) | – | inconclusive: 31.6 µM [inhibitor, partial curve, poor fit]

Row | Compound | activity, negative = inhibition | Potency
45 | Cc1cccc(NC(=O)COc2ccccc2C)n1 | – | inconclusive: 15.8 µM [inhibitor, partial curve, poor fit]
46 | Cc1ccc(C(=O)NCC(=O)OCC(=O)Nc2cc(C)c(C)cc2[N+](=O)[O-])cc1 | – | inconclusive: 39.8 µM [activator, single point]
47 | Cc1[nH]c2ccccc2c1C(c1ccccc1)c1ccc(Cl)s1 (stereo not given) | – | inconclusive: 44.7 µM [inhibitor, single point]
48 | O=C(O)Cc1sc(-c2ccccc2Cl)nc1-c1ccccc1 | inactive: 8% | –
49 | CCOC(=O)c1nn(-c2ccccc2C)c(=O)c2c(N)scc12 | – | active: 17.8 µM
50 | COc1ccccc1NC(=O)CSc1nc2nccnc2c(=O)n1CCc1c[nH]c2ccccc12 | – | inconclusive: 5.01 µM [inhibitor, full curve]
51 | Cc1cccn2c(Nc3ccccc3)c(-c3cccs3)nc12 | inactive: 9.13% | –
52 | O=c1cc2c(=O)oc3cc(O)c(O)oc3c2c(O)c1O | – | inconclusive: 10 µM [inhibitor, partial curve]
53 | O=C(NC(=S)Nc1cccc(NC(=O)c2ccc(Cl)cc2Cl)c1)c1cccs1 | – | inconclusive: 39.8 µM [inhibitor, single point]
54 | CC(C)c1nc2ccc(C(=O)NCCCN3CCN(c4cccc(Cl)c4)CC3)cc2o1 | inactive: 4.02% | –
55 | Cc1cccc(N2CCN(C(=O)CN3C(=O)COc4ccc(S(=O)(=O)N5CCC(C)CC5)cc43)CC2C)c1 (stereo not given) | inactive: 9.95% | –
56 | C[C@H](O/N=C1/[C@H]2O[C@@H]2[C@@H](O)[C@H]2[C@H]1CCn1c(=O)n(-c3ccccc3)c(=O)n12)c1cn([C@H](CO)Cc2ccccc2)nn1 | inactive: -0.501% [at 11.6 µM] and inactive: -1.36% [at 11.6 µM] | –
57 | N#CCCn1cc(/C=C2\NC(=S)N(c3ccccc3)C2=O)c(-c2ccc(-c3ccccc3)cc2)n1 | – | inconclusive: 17.8 µM [inhibitor, single point]
58 | COc1ccc(NC(=O)NC2CCN(C(C)C)CC2)c(OC)c1 | – | inconclusive: 20 µM [activator, single point]
59 | O=C(NC1CCS(=O)(=O)C1)C1C2CC3CC(C2)CC1C3 (stereo not given) | inactive: 4.54% | –
60 | COc1ccc(CCNC(=O)CSc2nc(O)c(CC(C)C)c(=O)[nH]2)cc1OC | – | inconclusive: 7.94 µM [inhibitor, single point]
61 | COc1cc(Nc2nc3ccccc3n3nnnc23)cc(OC)c1OC | – | inconclusive: 8.91 µM [activator, partial curve]
62 | NC(=O)NC(=O)CSc1nc2sc(-c3ccccc3)cc2c(=O)n1-c1ccccc1 | – | inconclusive: 17.8 µM [inhibitor, partial curve]
63 | O=C(CSCc1c(Cl)cccc1Cl)NN1C(=O)c2ccccc2C1=O | – | inconclusive: 0.0224 µM [inhibitor, full curve, poor fit]
64 | S=C(NCCC(c1ccccc1)c1ccccc1)Nc1ccccc1Cl | – | inconclusive: 31.6 µM [inhibitor, single point]
65 | COc1cc(C(Nc2ccccn2)c2ccc3ccc(C)nc3c2O)cc(OC)c1O (stereo not given) | – | inconclusive: 44.7 µM [inhibitor, single point]
